Measured values published in a collection of fitness landscapes (doi:10.1016/j.celrep.2020.107928).
Whole data set: some 81,000 sequences, median “one-hybrid fitness for binding parS DNA” near -0.17, cut for the highest 2% near 0.51. The list shows a part of the results.

B1: Caulobacter ParB omega fusion; a variant is named by its letters at X, in order, B8GW30 (parent)
chain: MESVVVGEPGMSEGRRGLGRGLSALLGEVDAAPAQAPGEQLGGSREAPIEILQRNPDQPRRTFREEDLEDLSNSIREKGVLQPILVRPSPDTAGEYQIVAGERAWRAAQRAGLKTVPIMVRELDDLAVLEIGIIENVQRADLNVLEEALSYKVLMEKFERTQENIAQTIGKSXSHVANXMRLLXLPDEVQSYLVSGELTAXHARAIAAAADPVALAKQIIEGGLSVRETEALARKAPNLSAGKSKGGRPPRVKDTDTQALESDLSSVLGLDVSIDHRGSTGTLTITYATLEQLDDLCNRLTRGI

Variants of: B1
Assay: one-hybrid fitness for binding parS DNA (scaled: cognate 1, non-cognate 0); higher = stronger binding
Conditions: with parS DNA site
How it was run: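 In E. coli USO, a HIS3 reporter with its site placed 19 bp from the promoter was used to select Caulobacter ParB variants randomised at four specificity codons. Growth lasted 48 hours at 37°C on histidine-free M9 containing 0.1 mM IPTG and 5 mM 3-AT. Fitness was taken as the log change in variant-to-wild-type read ratio from Illumina sequencing of pre- and post-selection plasmids, rescaled between the non-cognate and cognate sites.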

Row | Variant | one-hybrid fitness for binding parS DNA
1 | RCAM | 0.351
2 | QIPF | ≤ 0.2
3 | LKPL | ≤ 0.2
4 | LFLW | ≤ 0.2
5 | SNCM | ≤ 0.2
6 | NKNC | ≤ 0.2
7 | CCTT | ≤ 0.2
8 | VYLT | ≤ 0.2
9 | SVML | ≤ 0.2
10 | LMQK | ≤ 0.2
11 | QAPE | ≤ 0.2
12 | AATI | ≤ 0.2
13 | IAIL | ≤ 0.2
14 | TCVD | ≤ 0.2
15 | VLHM | ≤ 0.2
16 | CCST | ≤ 0.2
17 | LVST | ≤ 0.2
18 | MKNG | ≤ 0.2
19 | MGKV | ≤ 0.2
20 | ATMC | ≤ 0.2
21 | QLML | ≤ 0.2
22 | FQPT | ≤ 0.2
23 | SHPE | ≤ 0.2
24 | DCDG | ≤ 0.2

Row | Variant | one-hybrid fitness for binding parS DNA
25 | IFMT | ≤ 0.2
26 | QFRA | ≤ 0.2
27 | QVCT | ≤ 0.2
28 | QESD | ≤ 0.2
29 | YIPI | ≤ 0.2
30 | PQYM | ≤ 0.2
31 | HCPG | ≤ 0.2
32 | FHLK | ≤ 0.2
33 | YIGG | ≤ 0.2
34 | AQVR | ≤ 0.2
35 | VIIA | ≤ 0.2
36 | WMQS | ≤ 0.2
37 | YMES | ≤ 0.2
38 | SDCG | ≤ 0.2
39 | AHDV | ≤ 0.2
40 | GSHC | ≤ 0.2
41 | QIRN | ≤ 0.2
42 | LDHM | ≤ 0.2
43 | HDMF | ≤ 0.2
44 | TIFF | ≤ 0.2
45 | CQRL | ≤ 0.2
46 | AQLS | ≤ 0.2
47 | APKK | ≤ 0.2
48 | GSAR | ≤ 0.2

Row | Variant | one-hybrid fitness for binding parS DNA
49 | ITKH | ≤ 0.2
50 | ILYI | ≤ 0.2
51 | QVYL | ≤ 0.2
52 | QRNL | ≤ 0.2
53 | CTTV | ≤ 0.2
54 | DLTG | ≤ 0.2
55 | PYFL | ≤ 0.2
56 | VTKG | ≤ 0.2
57 | PSDL | ≤ 0.2
58 | QTYH | ≤ 0.2
59 | HSLV | ≤ 0.2
60 | LKLE | ≤ 0.2
61 | PIWR | ≤ 0.2
62 | EVRR | ≤ 0.2
63 | MSPF | ≤ 0.2
64 | QFDW | ≤ 0.2
65 | APYL | ≤ 0.2
66 | SWYC | ≤ 0.2
67 | RTIR | ≤ 0.2
68 | GYQR | ≤ 0.2
69 | YQLI | ≤ 0.2
70 | RYKC | 0.752
71 | GEPV | ≤ 0.2
72 | DEDW | ≤ 0.2

Row | Variant | one-hybrid fitness for binding parS DNA
73 | SMVD | ≤ 0.2
74 | ETPT | ≤ 0.2
75 | FGGR | ≤ 0.2
76 | KKCR | ≤ 0.2
77 | CWNS | ≤ 0.2
78 | WLPY | ≤ 0.2
79 | FHDT | ≤ 0.2
80 | GLTE | ≤ 0.2
81 | QMAM | ≤ 0.2
82 | VARC | ≤ 0.2
83 | QGKE | ≤ 0.2
84 | SLHY | ≤ 0.2
85 | GCKR | ≤ 0.2
86 | IGLC | ≤ 0.2
87 | YNLR | ≤ 0.2
88 | TIPE | ≤ 0.2
89 | SNVN | ≤ 0.2
90 | KVLV | ≤ 0.2
91 | MQDT | ≤ 0.2
92 | LESR | ≤ 0.2
93 | RKEG | 0.949
94 | TVSS | ≤ 0.2
95 | QSNA | ≤ 0.2
96 | RRTE | ≤ 0.2

Row | Variant | one-hybrid fitness for binding parS DNA
97 | CSFI | ≤ 0.2
98 | GQEG | ≤ 0.2
99 | RDGV | ≤ 0.2
100 | EHPE | ≤ 0.2
101 | GLNE | ≤ 0.2
102 | FLPG | ≤ 0.2
103 | NAFC | ≤ 0.2
104 | AATR | ≤ 0.2
105 | LEPS | ≤ 0.2
106 | TPTT | ≤ 0.2
107 | WMVS | ≤ 0.2
108 | TYNK | ≤ 0.2
109 | QCQM | ≤ 0.2
110 | QLVH | ≤ 0.2
111 | FQLC | ≤ 0.2
112 | EHVT | 0.202
113 | DAPQ | ≤ 0.2
114 | EWNR | ≤ 0.2
115 | IILG | ≤ 0.2
116 | YSYG | ≤ 0.2
117 | ARRY | ≤ 0.2
118 | PYVV | ≤ 0.2
119 | LCIT | ≤ 0.2
120 | KCVS | ≤ 0.2

Row | Variant | one-hybrid fitness for binding parS DNA
121 | RDTI | ≤ 0.2
122 | CSLR | ≤ 0.2
123 | SHNR | ≤ 0.2
124 | RYQI | ≤ 0.2
125 | LKKR | ≤ 0.2
126 | PPLN | ≤ 0.2
127 | GLSY | ≤ 0.2
128 | RKHE | ≤ 0.2
129 | VYNT | ≤ 0.2
130 | CPFV | ≤ 0.2
131 | MVEV | ≤ 0.2
132 | TCYM | ≤ 0.2
133 | LAQE | ≤ 0.2
134 | NCRM | ≤ 0.2
135 | QMCV | ≤ 0.2
136 | EYTR | ≤ 0.2
137 | TMFD | ≤ 0.2
138 | LCWS | ≤ 0.2
139 | KHDR | ≤ 0.2
140 | VVVC | ≤ 0.2
141 | SSKW | ≤ 0.2
142 | EGHF | ≤ 0.2
143 | HMRY | ≤ 0.2
144 | KAHT | ≤ 0.2

Row | Variant | one-hybrid fitness for binding parS DNA
145 | QSAP | ≤ 0.2
146 | TPYF | ≤ 0.2
147 | HTPP | ≤ 0.2
148 | WLER | ≤ 0.2
149 | QSAD | ≤ 0.2
150 | PGDG | ≤ 0.2
151 | DLPM | ≤ 0.2
152 | RLCP | ≤ 0.2
153 | WAMT | ≤ 0.2
154 | KMDT | ≤ 0.2
155 | AHSD | ≤ 0.2
156 | MELS | ≤ 0.2
157 | THLV | ≤ 0.2
158 | WSLV | ≤ 0.2
159 | DVND | ≤ 0.2
160 | QCWA | ≤ 0.2
161 | KSCR | ≤ 0.2
162 | RFCV | ≤ 0.2
163 | SYKR | ≤ 0.2
164 | SNHC | ≤ 0.2
165 | ASHY | ≤ 0.2
166 | NTFS | ≤ 0.2
167 | NRGM | ≤ 0.2
168 | QANS | ≤ 0.2

Row | Variant | one-hybrid fitness for binding parS DNA
169 | YLTI | ≤ 0.2
170 | QCPQ | ≤ 0.2
171 | KRVC | ≤ 0.2
172 | IFQG | ≤ 0.2
173 | LGTE | ≤ 0.2
174 | MRAF | ≤ 0.2
175 | GDVA | ≤ 0.2
176 | TGER | ≤ 0.2
177 | DLAT | ≤ 0.2
178 | PNMW | ≤ 0.2
179 | KVPS | ≤ 0.2
180 | CMRD | ≤ 0.2
181 | TPEA | ≤ 0.2
182 | AKWS | ≤ 0.2
183 | QRGG | ≤ 0.2
184 | KFMC | ≤ 0.2
185 | CMNV | ≤ 0.2
186 | YSDS | ≤ 0.2
187 | LHTK | ≤ 0.2
188 | YGKL | ≤ 0.2
189 | ICLR | ≤ 0.2
190 | RPDP | ≤ 0.2
191 | WSAQ | ≤ 0.2
192 | WAIS | ≤ 0.2

Row | Variant | one-hybrid fitness for binding parS DNA
193 | QAMC | ≤ 0.2
194 | VLFG | ≤ 0.2
195 | TATK | ≤ 0.2
196 | LPMT | ≤ 0.2
197 | SCGT | ≤ 0.2
198 | MFRW | ≤ 0.2
199 | PEDG | ≤ 0.2
200 | SSFG | ≤ 0.2
201 | QSGP | ≤ 0.2
202 | IRAL | ≤ 0.2
203 | LYPF | ≤ 0.2
204 | GHRH | ≤ 0.2
205 | QNCE | ≤ 0.2
206 | SPGE | ≤ 0.2
207 | PNRF | ≤ 0.2
208 | PVNR | ≤ 0.2
209 | FGVL | ≤ 0.2
210 | GEQS | ≤ 0.2
211 | QLGW | ≤ 0.2
212 | PAQF | ≤ 0.2
213 | DFND | ≤ 0.2
214 | KPTG | ≤ 0.2
215 | MITS | ≤ 0.2
216 | YSVY | ≤ 0.2

Row | Variant | one-hybrid fitness for binding parS DNA
217 | LPIG | ≤ 0.2
218 | QLPQ | ≤ 0.2
219 | MFWL | ≤ 0.2
220 | ILAT | ≤ 0.2
221 | SLIA | ≤ 0.2
222 | HDCS | ≤ 0.2
223 | DADV | ≤ 0.2
224 | IHRG | ≤ 0.2
225 | KQST | ≤ 0.2
226 | DEWG | ≤ 0.2
227 | TCSW | ≤ 0.2
228 | RCSA | 0.575
229 | ENKR | ≤ 0.2
230 | CHKG | ≤ 0.2
231 | LARE | ≤ 0.2
232 | HRRD | ≤ 0.2
233 | GRPG | ≤ 0.2
234 | HQDT | ≤ 0.2
235 | KKLT | ≤ 0.2
236 | RDDW | ≤ 0.2
237 | MLAS | ≤ 0.2
238 | NYLC | ≤ 0.2
239 | GESC | ≤ 0.2
240 | ARFS | ≤ 0.2

Row | Variant | one-hybrid fitness for binding parS DNA
241 | HWTS | ≤ 0.2
242 | CHLA | ≤ 0.2
243 | DCLF | ≤ 0.2
244 | NYIC | ≤ 0.2
245 | QARW | ≤ 0.2
246 | QHTK | ≤ 0.2
247 | ARDR | ≤ 0.2
248 | NHSL | ≤ 0.2
249 | MCLS | ≤ 0.2
250 | PKKT | ≤ 0.2
251 | YLLT | ≤ 0.2
252 | GYTA | ≤ 0.2
253 | LKSI | ≤ 0.2
254 | TQIS | ≤ 0.2
255 | GLGA | ≤ 0.2
256 | SHTE | ≤ 0.2
257 | AVAS | ≤ 0.2
258 | LEVG | ≤ 0.2
259 | KNVG | ≤ 0.2
260 | VLKT | ≤ 0.2
261 | TVQC | ≤ 0.2
262 | VLTR | ≤ 0.2
263 | ILTC | ≤ 0.2
264 | GSKW | ≤ 0.2

Row | Variant | one-hybrid fitness for binding parS DNA
265 | TCTS | ≤ 0.2
266 | DYHC | ≤ 0.2
267 | RGDC | 0.467
268 | APSA | ≤ 0.2
269 | NPFG | ≤ 0.2
270 | QWSH | ≤ 0.2
271 | ILYK | ≤ 0.2
272 | RQMY | 0.474
273 | TPIP | ≤ 0.2
274 | RTNW | 0.287
275 | NSMT | ≤ 0.2
276 | IYSI | ≤ 0.2
277 | TRPK | ≤ 0.2
278 | ARQS | ≤ 0.2
279 | QTYY | ≤ 0.2
280 | KPHL | ≤ 0.2
281 | ASNE | ≤ 0.2
282 | TWRR | ≤ 0.2
283 | QGHY | ≤ 0.2
284 | SHKE | ≤ 0.2
285 | VSCG | ≤ 0.2
286 | EAVS | ≤ 0.2
287 | KHYR | ≤ 0.2
288 | YTLW | ≤ 0.2

Row | Variant | one-hybrid fitness for binding parS DNA
289 | KLHA | ≤ 0.2
290 | EAKV | ≤ 0.2
291 | GSFV | ≤ 0.2
292 | ISVG | ≤ 0.2
293 | MMAC | 0.206
294 | ADPH | ≤ 0.2
295 | HQES | ≤ 0.2
296 | NQRM | ≤ 0.2
297 | QHSA | ≤ 0.2
298 | ETPL | ≤ 0.2
299 | STYI | ≤ 0.2
300 | RTVQ | ≤ 0.2
301 | PPHL | ≤ 0.2
302 | GYHN | ≤ 0.2
303 | ARHF | ≤ 0.2
304 | RCGE | ≤ 0.2
305 | AFTC | ≤ 0.2
306 | IRSS | ≤ 0.2
